Test results reported in the supplement of paper PMC11417369.
± gives the standard deviation of the averaged measurements. Some of the results follow.

system: PfAP2-EXP AP2 domain (GST-tagged); assay: gcPBM binding intensity (ln(normalized median fluorescence intensity)); higher = stronger DNA binding
In short: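 Binding intensity values are the highest Masliner-normalised natural-log median intensity among replicate spots of either probe orientation. The binding step lasted 1 h in 1× PBS with 1% milk, 0.2 mg/ml BSA, 0.5% salmon testes DNA and 0.03% Triton X-100, using GST-tagged P. falciparum DNA-binding domains expressed in E. coli on an Agilent 4 × 180k array of primer-extended double-stranded 36-bp intergenic genomic probes plus negative controls. Alexa488 anti-GST antibody and a 488 nm scan detected bound protein.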

Sequence | gcPBM binding intensity (ln)
CATATATAAATATAAATATATATATATATATATATG [XGTACX_negctrl_site493] | 8.4 ± 0.13
ACTTATTATTAATATTGTACTCTTGAAAATTGTGGA [XGTACX_site6315] | 8.47 ± 0.13
ATATATATTTTTTAAACACACACATAAATATTTGTG [CACACA_site8936] | 8.56 ± 0.47
TATATATATATATGTGCATGTTCCCCATGCTTCCAT [TGCATGCA_site366] | 10.1 ± 0.38
AAAATTATAATAATATGTACTTAAAAAATTTATATA [XGTACX_site632] | 8.16 ± 0.3
TATATGTATTTATATACACACATATTCTTTTGACAC [CACACA_site1206] | 8.43 ± 0.37
AATATATATATATATAGTACATATTTTTATTCATTA [XGTACX_site2156] | 8.32 ± 0.27
ATATATATATATATATGTACATATGTATATTTTTTT [XGTACX_site1299] | 10.1 ± 0.3
TTCTTCAAGGAAAACACATGCGCATTTTCACCAATT [TGCATGCA_site11] | 9.09 ± 0.29
AATTATTTACCCTATACACACAAAACACGCTAAAAA [CACACA_site1211] | 8.79 ± 0.43
ATATTATAATAAATGTGTACATATTGTAGAAATATT [XGTACX_site8101] | 8.7 ± 0.27
TATTATATATTAAATGCATGTAAAAATAATATTAAA [TGCATGCA_site643] | 9.24 ± 0.44
ATTTTGTGCGCACACACATGCAAAAAGAAATATGAT [TGCATGCA_site261] | 9.27 ± 0.15
AAAGAGAGTATCTAATGTACGTATGTATGTATATAT [XGTACX_site1780] | 8.79 ± 0.33
TCACATACATGAAAATGTACTTTTATAATTCCATAA [XGTACX_site1836] | 8.32 ± 0.33
TATGACCTTAGAAATTGTACAAGAAAAAATGTTACA [XGTACX_site7084] | 8.79 ± 0.39
GTTATAAATAAATACACACATACAAAAATATGACGT [CACACA_site1154] | 8.5 ± 0.44
ATATAAAATACATGGGTGCAATATATTAAACAAATA [GTGCAC_site9421] | 9.33 ± 0.18
ATCGTGAATAATATCTGTACATATGAACACATATAT [XGTACX_site952] | 8.64 ± 0.32

Sequence | gcPBM binding intensity (ln)
TAAAGGTGAACAATACGTACATAAGAACTTATGAGG [XGTACX_site4216] | 8.8 ± 0.38
TAAATAATTTCACGAATGACAAAGATATAATAAGTT [CACACA_negctrl_site1430] | 8.63 ± 0.41
TCTGTAAATACGTGCACACACAAATCACAAATGTGA [CACACA_site330] | 8.95 ± 0.25
ATAAATACACACAAGTGTACATACTTCTATAAATAT [XGTACX_site1845] | 8.32 ± 0.22
ATACATATATATATGTGTACATATTATATATACATA [XGTACX_site8420] | 8.36 ± 0.3
TTTCCATATATAGAACGTACAAAGATCTTTGTTACT [XGTACX_site8972] | 8.66 ± 0.51
TTTTTTTTTATGTGCACACAAAAGATGCTTATATTT [CACACA_site2348] | 8.89 ± 0.085
TGCATATACATATGTAGTACAATAATTTGAAAAAAA [XGTACX_site5239] | 8.43 ± 0.27
TAGCTTTTGCCTTTTTTTAAAAAAAAATAAATAAAT [TGCATGCA_negctrl_site242] | 8.19 ± 0.53
TATATATATTTATACACACAAACATAATACTACTTA [CACACA_site2022] | 8.43 ± 0.33
TATATATGGTATAATTGTACTAACGCCAACTATACC [XGTACX_site5853] | 8.59 ± 0.44
ATATATATATATATAAAGTGAAGTATGAGGGAAATA [XGTACX_negctrl_site497] | 10.1 ± 0.3
TTATTATTTTATAACACACACATATAGATTATAGCT [CACACA_site6787] | 8.38 ± 0.4
AAAAATTAAATATAAAGTACAAAATTAAAATCTTAA [XGTACX_site931] | 8.32 ± 0.33
TATGTATGTATTAATGCGCACACAAAAAATAACAAT [CACACA_site8551] | 9.03 ± 0.36
TTTTGTATTTATGGATGTACATAATATGTTTTAAAC [XGTACX_site3278] | 8.66 ± 0.37
TTTCGTAACTATTTGTGTACATATATATATATATAT [XGTACX_site2920] | 10.3 ± 0.29
ATTTTCTTTTCCATAGTGCAATATAATTATCCATCA [GTGCAC_site9547] | 9.03 ± 0.37
ATAAATATATGAAATATACACACTTCTTTGGTATTA [CACACA_site456] | 8.28 ± 0.35

Sequence | gcPBM binding intensity (ln)
GGAACCATCCAAAAAAAAAAAAAAAATAATAATAAT [CACACA_negctrl_site383] | 8.09 ± 0.46
ACATGTACAGAAATTTATATATATATATATATATAT [CACACA_negctrl_site1584] | 10.3 ± 0.33
ATTATTATGTATTGCCGTACACATATTATCACAGAA [XGTACX_site3740] | 8.65 ± 0.37
TATAAATAAACATTTACACACTCTTATAATAAATAT [CACACA_site1679] | 8.09 ± 0.36
TCTTCATATATAATTGTACACACAAAAACGACATTG [CACACA_site8645] | 8.92 ± 0.38
TATTATAATTAATATACACACGCTTATATATATATA [CACACA_site75] | 9.93 ± 0.3
CTCACAATACTTACATGTACATATTATATATATAAA [XGTACX_site1880] | 9.11 ± 0.38
GTTGAAATAAAATTAGTGCATATATAAATATATATA | 8.26 ± 0.11
AACTAATAGTATATTACATGCAAAAGTAAAAGTAAA [TGCATGCA_site411] | 9.32 ± 0.2
ACTGAAAAAAGAAATACACACATTCTGGATCAGATA [CACACA_site7760] | 8.57 ± 0.43
TCATTCTTGTGTTTATGTACACATATTTATATTGTA [XGTACX_site710] | 8.6 ± 0.3
TTATCATTTTTGGAATGTACTTACATTAAATATTTA [XGTACX_site4034] | 8.4 ± 0.45
TATATGCAAAATGTCACACATGTGATAAATACATAT [CACACA_site4302] | 8.72 ± 0.36
AGTACATTATAGAATACACACCTATACATTTATATA [CACACA_site6391] | 8.49 ± 0.41
CCCAGGAATATAAAATGTACATAAAAAATACAAATT [XGTACX_site1708] | 9.26 ± 0.72
ATTTTATTTTTTCACACACACATATATATATATATA [CACACA_site3334] | 10.2 ± 0.32
TAAGCACAAGCACAAGCACACATTTATATATATATA [CACACA_site883] | 9.85 ± 0.4
TTTTTTTTTTTTGGATGTACTTAATGAAAATGTTAC [XGTACX_site8980] | 8.19 ± 0.35
ATAATAATATAAAAATGTACATATATTTATAATTGT [XGTACX_site3429] | 8.4 ± 0.34
